In PubChem BioAssay AID1963576 (National Center for Advancing Translational Sciences (NCATS), 2024):
Screen size: about 46,000 compounds; about 60 (0.1%) were called active. Not shown: some 3% with an inconclusive outcome. The call rests on the fitted dose curve; in most records, active means well fitted inhibition curve with a large enough effect; inconclusive means small, poorly fitted or top-dose-only effect; inactive means no such curve, though single readings can be large or run the other way. The list shows a part of the results.

experiment: Primary qHTS assay for Inhibitors of ovarian cancer metastasis using an organotypic tumor microenvironment (TME) model.; further: nearly all actives have a fitted effect of over 65% in size;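 on activity change, negative = inhibition: plate controls were DMSO wells for no effect and tomatine positive control wells for full effect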; conditions: SKOV3ip1-GFP adhesion/invasion on 3D omental model, fluorescence; series mostly up to 45.8 µM; activity change, negative = inhibition: at the top concentration
Method in brief: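 Adhesion/invasion was scored as fixed GFP-labeled SKOV3ip1 cell counts (488/509 nm), normalized to DMSO and tomatine controls. Cancer cells in serum-free medium, with four compound doses (0.36-46 umol/L), sat 2 hr at RT then 16 hr at 37 C on a 48 hr fibroblast/mesothelial/ECM culture.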

Activity change, negative = inhibition, inactive:
Cc1ccc2oc(=O)c3cc(C(=O)N4CCN(c5ccccc5)CC4)sc3c2c1 -10.4%
CC(C)(C)[N+]([O-])=Cc1ccc(S(=O)(=O)O)cc1S(=O)(=O)O -0.661%
Cn1nnnc1SCCCNCc1ccc(-c2ccc(Br)cc2)o1 -4.95%
Cc1cccc(CNC(=O)C2CCCN(S(=O)(=O)c3cn(C)cn3)C2)c1 (stereo unspecified) -8.64%
Cc1ccc(NC(=O)CSc2nc3ccccc3nc2Cc2ccccc2F)cc1F 12.7%
CCC1CN(C(=O)NCc2ccc(C)cc2)c2cc(C)ccc2O1 (stereo unspecified) -2.85%
CCCCCNC(=O)c1c[nH]c2ccc(S(=O)(=O)N3CCC(C)CC3)cc2c1=O 3.12%
CCc1ccccc1NC(=O)C1(S(=O)(=O)c2ccc(Cl)cc2)CC1 -10.9%
CCOC(=O)c1c(C)oc2ncnc(Nc3ccc(F)cc3Cl)c12 -6.67%
Cc1ccc(C)c(N2CCN(C(=O)c3cc4ccc5cccnc5c4[nH]3)CC2)c1 -23.1%
COc1ccc(CNC(=O)c2cc3c(=O)[nH]c4ccc(C)cc4c3s2)c(OC)c1 3.18%
COc1ccc(OC)c(NC(=O)CCn2cnnn2)c1 -10.3%
COc1cc(C(=O)NCC(c2ccc(N(C)C)cc2)N2CCc3ccccc32)cc(OC)c1OC (stereo unspecified) 7.46%
COc1ccccc1CNC(=O)CS(=O)(=O)c1cccc2nsnc12 -9.2%
Cc1ccc(CN2C(=O)c3ccccc3Sc3ccc(C(=O)NC4CCCCC4)cc32)cc1 -8.54%
COc1ccc(-c2oc3ncn4nc(-c5cccc(C)c5)nc4c3c2-c2ccc(OC)cc2)cc1 -4.18%
COc1cc(CN(C(=O)COc2ccc(Br)cc2)c2ccccn2)cc(OC)c1OC 3.96%
COc1ccc(CNC(=O)C2CCN(c3nc4ccccc4[nH]3)CC2)c(OC)c1 -0.586%
CC(C)OC(=O)C1=CN(C(=O)c2ccc(F)c(F)c2)CC(C)(C)c2c1[nH]c1ccccc21 -21.3%
O=C(CSc1ncc(CO)n1Cc1ccccc1)Nc1nc2ccccc2s1 38.8%
Cc1ccn2c(Nc3ccc(F)cc3)c(-c3ccc(C)o3)nc2c1 -6.04%
O=C(NC1CC(=O)N(c2ccc(F)cc2)C1)c1cccs1 (stereo unspecified) -6.82%
CC(=O)c1sc2c(c1C)c(=O)n(-c1ccc(Cl)cc1)c(=O)n2Cc1cc(=O)n2cc(Cl)ccc2n1 -4.37%
NC(=O)c1nnn(Cc2cc(Cl)c(C(=O)c3ccc(Cl)cc3)c(Cl)c2)c1N -2.48%
Cc1nn(C(=O)c2ccc(Cl)cc2)c(C)c1Sc1ccc(Cl)cc1 1.09%
CCCCOc1ccc(OC(=O)c2sc3ncn(Cc4cccc(F)c4)c(=O)c3c2C)cc1 -20.7%
COC(=O)c1cccc(NC(=O)C2CCN(S(=O)(=O)Cc3ccccc3)CC2)c1C -0.454%
Cc1cc(NC(=O)CSc2nc(-c3ccccc3F)nc3c2c(=O)n(C)c(=O)n3C)no1 12.2%
CCCSc1nc2sc3c(c2c(=O)n1-c1ccccc1)CCC(C)C3 (stereo unspecified) 3.53%
CCC1=C(c2ccc(C)cc2)S(=O)(=O)N=C1N1CCC(C(=O)Nc2ccccc2C(=O)OC)CC1 1.03%
Cc1cn2c(=O)cc(COc3ccc(NC(=O)c4ccc(C(C)(C)C)cc4)cc3)nc2s1 3.56%
Cc1ccc(CCNC(=O)c2cc(-c3ccccc3)n[nH]2)cc1 8.01%
CC(=O)c1ccc(NC(=O)CSc2nnc3ccc(-c4ccc(F)cc4)nn23)cc1 -2.1%
CCN(C(=O)c1sc2nc3n(c(=O)c2c1C)CCCC3)c1ccccc1F -27.8%
Cc1ccc(C)c(NC(=O)c2cnn(-c3ccc(F)cc3F)c2C2CCNCC2)c1 0.796%
CC[C@H](CO)Nc1nc(NCc2ccccc2)c2ncn(C(C)C)c2n1 3.56%
CCOC(=O)c1ccc(NC(=O)CN2C(=O)C(C)(C)c3ccccc32)cc1 -10.7%
Cc1ccc(Nc2ccc(N3CCN(C(=O)c4cccc([N+](=O)[O-])c4)CC3)nn2)cc1 2.71%
COc1ccccc1NC(=O)CN(C)S(=O)(=O)c1cccc2cccnc12 -0.256%
Fc1ccccc1C(NCCc1ccc(Cl)cc1)c1nnc(-c2ccccc2)o1 (stereo unspecified) 0.599%
CCCC12CN3CC(CCC)(CN(C1)C3c1ccc(OCc3ccccc3)cc1)C2=O (stereo unspecified) -1.79%
COc1ccc(NS(=O)(=O)c2cc(-c3onc(C)c3C)ccc2C)c(OC)c1 -0.344%
Cc1ccc(CNC(=O)CN2Cc3ccccc3C2=O)cc1 -6.98%
Cc1ccc(NC(=O)c2cccc(C(C)(C)C#N)c2)cc1Nc1ccc2ncn(C)c(=O)c2c1 55.3%
Cc1cccc(NC(=O)c2cccc(N3CCCS3(=O)=O)c2)c1 -8.55%
Cc1ccc(C2CC(=O)n3nc(-c4ccc(F)cc4)nc3S2)cc1 (stereo unspecified) -0.59%
Cc1ccc(Cl)cc1NC(=O)c1sc2nc(C)c(C)c(C)c2c1N 2.77%
CCOC(=O)c1ccccc1NC(=O)N(Cc1ccc(CC)cc1)Cc1cn[nH]c1-c1ccc(OC)cc1 0.176%
CCCc1cnc2c(c1SCC(=O)Nc1ccc([N+](=O)[O-])cc1)c(=O)n(C)c(=O)n2C -2.9%
COC(=O)c1ccc2c(c1)sc(=NC(=O)c1ccc(S(=O)(=O)N3CCCCC3)cc1)n2C 4.87%
COc1ccc(C2c3c(-c4ccccc4)n[nH]c3C(=O)N2c2ccc(C(=O)O)cc2)c(OC)c1 (stereo unspecified) 11.2%
COc1ccc(-n2nc(C(=O)NCCc3ccc(Cl)cc3)c3c4ccccc4n(C)c3c2=O)cc1 5.65%
Cc1ccc(-c2c(CN3CCN(c4cccc(C)c4C)CC3)csc2C)cc1 -3.11%
OCCN(CCO)c1nc(N2CCCCC2)c2nc(N(CCO)CCO)nc(N3CCCCC3)c2n1 -9.23%
CC(C)NC(=O)CCSc1nc(-c2ccc3c(c2)OCO3)cc(C(F)(F)F)n1 -0.353%
CCOc1ccccc1N(CC)C(=O)c1ccc2c(=O)n3c(nc2c1)CCCCC3 -7.47%
CN(c1nccc(=O)[nH]1)C1CCN(c2nc3ccccc3n2Cc2ccc(F)cc2)CC1 12.3%
Nc1nonc1-c1nc2ccccc2n1CC(=O)Nc1ccccc1C(=O)O -3.76%
O=C(Nc1ccc(F)c(Cl)c1)C1CCCN(S(=O)(=O)c2cccc3nsnc23)C1 (stereo unspecified) -12.8%
CC1CCN(C(=O)Cn2c(=O)n(-c3ccc(Cl)cc3)c(=O)c3c4c(sc32)CCC4)CC1 31.6%
C[N+](C)(C)CC(=O)O -24.6%
CCc1cccc2c(-c3ccccc3)nc(SCC(=O)Nc3ccc(OC)cc3)nc12 -6.37%
CCOc1ccc(CCNC(=O)CSCc2nc(-c3cccc(C)c3)oc2C)cc1OCC 3.81%
CN(C)S(=O)(=O)N1CCC(N2CCN(Cc3ccc(F)cc3)C(=O)C2=O)CC1 5.03%
N#Cc1ccccc1Cn1c(SCC(=O)NCc2ccccc2)nc2ccccc21 -5.21%
CN(C)S(=O)(=O)c1ccc(C(=O)N(Cc2cccnc2)c2nc3c(F)cc(F)cc3s2)cc1 6.47%
CC(C)N(Cc1ccccc1)S(=O)(=O)c1ccc(N2CCCCS2(=O)=O)cc1 6.6%
Cc1cc2nn(-c3ccccc3)nc2cc1NC(=O)Cc1ccc(Cl)cc1 -2.05%
O=C(Cn1c(=O)c2cccn2c2ccc(F)cc21)NCc1cccc(Cl)c1 -4.34%
COc1ccc(-n2ccn(CC(=O)Nc3ccccc3C(F)(F)F)c(=O)c2=O)cc1OC -4.27%
CCc1ccc(-n2c(CCC(=O)O)ccc2-c2cccs2)cc1 6.91%

outcome, inactive:
COc1ccccc1CNC(=O)CCn1c(=O)c2ccccc2n(CC(=O)Nc2ccc(C)cc2)c1=O
CCCCCn1c(=O)[nH]c2cc(C(=O)Nc3cc(OC)cc(OC)c3)ccc2c1=O
Cc1nn(S(=O)(=O)c2ccc(C(C)C)cc2)c(C)c1S(=O)(=O)N1CCCCCC1
COc1ccc(-c2nsc(NC(=O)COc3ccc(C)c(C)c3)n2)cc1
Cc1cc(C)cc(NC(=O)CN2C(=O)CSc3ccc(S(=O)(=O)N(C)C)cc32)c1
COc1ccc(CCNC(=O)c2cc(-c3ccc(C)cc3)nc3n[nH]c(-c4ccccc4)c23)cc1OC
Cc1ccc(-c2nc3n(n2)C(c2ccccc2C)C=C(c2ccc(Cl)cc2)N3)cc1 (stereo unspecified)
COc1cc(C(=O)Nc2nnc(S(=O)(=O)N(C)c3ccccc3)s2)cc(OC)c1OC
COc1cc2nc(SCc3ccc(Cl)cc3)n3nc(CCn4nc(C)cc4C)nc3c2cc1OC
Cc1cc(O)c(C(c2ccccc2)N2CCC(C)CC2)c(=O)n1Cc1ccco1 (stereo unspecified)
Cc1cccc(NC(=O)C2CCCN2S(=O)(=O)c2cccc3nsnc23)c1C (stereo unspecified)
COc1ccc(CNC(=O)CCc2c(C)nn(-c3ccc(N4CCOCC4)nn3)c2C)c(OC)c1
CN(C)c1ccc(C(CNC(=O)c2ccc(C(C)(C)C)cc2)N2CCCC2)cc1 (stereo unspecified)
O=C(CSc1ncc2c(n1)-c1ccccc1N(Cc1ccc(Cl)cc1)S2(=O)=O)c1ccc(Cl)cc1
Cc1cccc(C)c1NC(=O)CCSc1nc(-c2ccc3c(c2)OCO3)cc(C(F)(F)F)n1
CCC1CN(C(=O)N2CCC(C(=O)NCCCc3ccccc3)CC2)c2cc(C)ccc2O1 (stereo unspecified)
Cc1ccccc1NC(=O)Cn1c(=O)n(CCC(=O)N2CCc3ccccc3C2)c(=O)c2ccccc21
COc1ccc(NC(=O)CCS(=O)(=O)c2cc3c(cc2C)NC(=O)CO3)cc1Cl
COc1cc(NC(=O)Cn2c(-c3ccccc3)cc(C(C)=O)c2C)cc(OC)c1
Cc1ccc(NC(=O)Cn2c(=O)n(CCC(=O)N3CCc4ccccc4C3)c(=O)c3ccccc32)c(C)c1
CC(C)CCn1c(SCc2c(F)cccc2Cl)nc2ccsc2c1=O
Cc1cn2c(=O)cc(COc3ccc(C(C)(C)C)cc3)nc2s1
Cc1cccc(C)c1NC(=O)CSc1nc(-c2cccs2)cc(C(F)(F)F)n1
CCOc1ccc2nc(NC(=O)c3nc(SC(C)C)ncc3Cl)sc2c1
Cc1c(Cl)cccc1NC(=O)CSc1nc(=O)n(CCN2CCOCC2)c2c1CCC2
